Article PMC4336329 (PLoS ONE, 2015)
The whole screen tested about 310,000 compounds, of which about 14,000 (4.5%) showed an effect of 50% or more. The effect is printed as a negative number. The list shows a part of the results.

Biological target: human ether-à-go-go-related gene (hERG) potassium channel (human, UniProt Q12809)
Assay: primary screen, population patch clamp on CHO cells stably expressing hERG
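Note: peak tail current of the secondary pulse compared with the same well before compound.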

Sequence of human ether-à-go-go-related gene (hERG) potassium channel (Q12809 whole entry, looked up): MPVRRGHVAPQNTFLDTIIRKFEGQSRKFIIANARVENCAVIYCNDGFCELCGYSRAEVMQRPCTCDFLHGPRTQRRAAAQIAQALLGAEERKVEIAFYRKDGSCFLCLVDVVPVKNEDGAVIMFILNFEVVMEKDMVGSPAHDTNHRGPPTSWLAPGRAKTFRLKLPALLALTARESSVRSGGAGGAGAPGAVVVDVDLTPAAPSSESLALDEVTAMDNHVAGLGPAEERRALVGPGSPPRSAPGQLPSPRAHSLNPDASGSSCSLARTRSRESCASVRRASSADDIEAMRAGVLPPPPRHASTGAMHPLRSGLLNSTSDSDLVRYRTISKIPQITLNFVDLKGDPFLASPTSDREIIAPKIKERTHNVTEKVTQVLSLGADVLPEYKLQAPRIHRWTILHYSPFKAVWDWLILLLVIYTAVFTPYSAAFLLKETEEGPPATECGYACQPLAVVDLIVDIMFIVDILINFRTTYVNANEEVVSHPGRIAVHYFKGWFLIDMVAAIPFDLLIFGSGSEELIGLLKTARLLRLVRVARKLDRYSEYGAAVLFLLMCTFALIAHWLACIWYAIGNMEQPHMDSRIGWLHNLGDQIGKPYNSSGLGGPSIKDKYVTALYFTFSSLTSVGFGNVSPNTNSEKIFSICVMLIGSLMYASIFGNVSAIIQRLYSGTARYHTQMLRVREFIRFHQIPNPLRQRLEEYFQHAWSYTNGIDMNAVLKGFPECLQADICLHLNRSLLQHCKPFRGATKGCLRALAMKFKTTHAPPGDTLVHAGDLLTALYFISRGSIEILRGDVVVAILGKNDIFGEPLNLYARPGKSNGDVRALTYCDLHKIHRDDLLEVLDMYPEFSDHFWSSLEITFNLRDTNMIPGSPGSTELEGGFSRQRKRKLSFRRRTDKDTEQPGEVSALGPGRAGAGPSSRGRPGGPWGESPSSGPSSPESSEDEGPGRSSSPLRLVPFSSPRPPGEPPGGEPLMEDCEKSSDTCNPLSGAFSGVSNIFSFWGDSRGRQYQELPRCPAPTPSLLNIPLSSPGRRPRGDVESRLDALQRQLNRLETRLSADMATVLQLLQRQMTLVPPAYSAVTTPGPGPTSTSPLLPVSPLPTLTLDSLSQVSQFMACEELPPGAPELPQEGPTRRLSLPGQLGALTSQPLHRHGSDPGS

| SMILES | hERG current change (%, negative = inhibition) at 10uM |
| --- | --- |
| CCCn1c(-c2ccccc2)cc(SC)c(C#N)c1=O | 17.3% |
| CCNC(=O)c1ccc(CSc2nc3ccccc3s2)cc1 | -0.267% |
| COc1ccc(CNC(=O)CCC(=O)N2CCN(C(C)=O)CC2)cc1 | 14.3% |
| O=C(c1cccs1)N1CCC(Cc2ccccc2)CC1 | -13.8% |
| COc1ccc(CCNS(=O)(=O)c2ccc3c(c2)OCCO3)cc1 | 2.19% |
| Cc1cccc(Oc2nc(-c3ccncc3)nc3ccccc23)c1 | 11.9% |
| COc1ccc(C(C)(C)C)cc1NC(=O)CNc1cccc2ccccc12 | -1.91% |
| O=C(COC(=O)c1ccc(Br)c(S(=O)(=O)N2CCOCC2)c1)NCC1CCCO1 (centres unmarked) | -14.6% |
| COC(=O)c1ccc(Cn2nnc3c(=O)[nH]c(C4CCN(S(=O)(=O)c5cc(C)ccc5C)CC4)nc32)cc1 | 17.9% |
| CCc1ccc2c(c1)C1(SC(NC(C)=O)=NN1C(C)=O)C(=O)N2CC (centres unmarked) | -0.0665% |
| CCOC(=O)N1CCN(CCC(=O)c2ccc(Br)cc2)CC1.Cl | -64.6% |
| O=C(Cn1cnc2c(nnn2Cc2ccccc2)c1=O)Nc1ccc2c(c1)OCCO2 | -17.2% |
| C=CCc1cc(OC)ccc1OCCN1CC(C)OC(C)C1.O=C(O)C(=O)O (centres unmarked) | -9.85% |
| Cc1ccc(N2C(=O)C3CCCN3C2=S)cc1Cl (centres unmarked) | -5.29% |
| CC1(C)C2CCC1(C)C(NC1=NCCC1)C2.Cl (centres unmarked) | -2.27% |
| O=C(Nc1ccc(-c2ccc3nncn3n2)cc1)C1CCCCC1 | -28.5% |
| O=C(c1cccc(C(=O)N2CCc3ccccc32)n1)N1CCc2ccccc21 | 1.92% |
| Cc1cc(C)nc(/N=C2\NC(=O)CC(C(=O)O)N2c2cccc(Cl)c2)n1 (centres unmarked) | 16.5% |
| Cc1ccc(C(=O)N/C(=C\c2ccco2)C(=O)NCc2cccnc2)cc1 | -65.2% |

| SMILES | hERG current change (%, negative = inhibition) at 10uM |
| --- | --- |
| COc1cc(CNC2CCCCC2OC)cc(OC)c1.O=C(O)C(=O)O (centres unmarked) | -14.4% |
| CCOc1ccc(N(CC(=O)Nc2ccc(CC)cc2)S(=O)(=O)c2c(C)[nH]c(=O)[nH]c2=O)cc1 | 22% |
| CCN(c1ccc(OC)cc1)S(=O)(=O)c1nnc(NC(=O)c2ccc(C)cc2)s1 | 15.8% |
| Cc1noc(C)c1S(=O)(=O)N1CCC(C(=O)NCCCN2CC(C)CC(C)C2)CC1 (centres unmarked) | 10.3% |
| CC(c1ccco1)N(C(=O)c1ccc(S(=O)(=O)N2CCCCC2)cc1)c1ccccn1 (centres unmarked) | -4.75% |
| O=C(O)CCn1c(=O)n(CCC(=O)O)c(=O)n(CCC(=O)O)c1=O | 17.3% |
| CC(CC(=O)Nc1ccc(-c2ccno2)cc1)n1cccn1 (centres unmarked) | -4.75% |
| CN(C(=O)COC(=O)c1cccc(F)c1)c1ccccc1 | 13.3% |
| COc1ccc(-c2nc3cnccn3c2Nc2ccc3c(c2)OCO3)cc1 | -52.7% |
| CCOC(=O)Nc1sc2c(c1C#N)CCCC2 | -12.7% |
| O=C(Nc1ccc(F)cc1F)NC1CC1 | 14.8% |
| Cc1ccc(-c2nc(C)sc2CC(=O)OCC(=O)Nc2c(F)cccc2F)cc1 | -5.28% |
| CC(C)C(=O)Nc1nnc(S(=O)(=O)N2CCCc3ccccc32)s1 | 3.84% |
| CCCCn1nnnc1SCC(=O)N(CC)CC | 10.4% |
| CCOC(=O)c1c(NC(=O)CSc2nnc(-c3cccnc3)n2Cc2ccco2)sc(C)c1C | -24.7% |
| O=C(Nc1ccncc1)c1ccc(Br)cc1 | -4.86% |
| Cc1cccc(-n2cnc3cc([N+](=O)[O-])ccc32)c1 | -51.9% |
| CCN(CC)S(=O)(=O)c1ccc(NCCc2ccccn2)nc1 | 12.3% |
| COC(=O)CN(c1ccc2c(c1)OCCO2)S(=O)(=O)c1ccccc1 | -22.2% |

| SMILES | hERG current change (%, negative = inhibition) at 10uM |
| --- | --- |
| Cc1cc(C)c2nc(N(CCN(C)C)C(=O)/C=C/c3cccs3)sc2c1.Cl | 17.9% |
| Fc1ccccc1Cc1noc(CN2CCN(c3ccc(Cl)cn3)CC2)n1 | -38% |
| COc1ccc(CCNc2nc(-c3sc(N)nc3C)cs2)cc1OC | -1.28% |
| Cc1ccc2oc(-c3cccc(NC(=O)/C=C/c4cccc([N+](=O)[O-])c4)c3C)nc2c1 | -0.234% |
| O=C(O)C1Cc2ccccc2CN1S(=O)(=O)c1ccc(Cl)cc1 (centres unmarked) | 16.5% |
| Cc1cccc(-n2c(C)nc3cc(C(=O)N4CCC5(CC4)OCCO5)ccc32)c1 | -22.7% |
| Cc1cc(NC(=O)CCC(=O)N(Cc2ccco2)C2(C(=O)NC3CCCC3)CCCCC2)no1 | -4.32% |
| O=C(COC(=O)c1ccc([N+](=O)[O-])s1)Nc1cccc(S(=O)(=O)NC2=NCCCCC2)c1 | -18.5% |
| Cc1nn(CC#N)c(=O)n1-c1cccc(F)c1 | 20.3% |
| Cc1ccc(S(=O)(=O)N2CCN(C(=O)CSC3CCCC3)CC2)c(C)c1 | -42.4% |
| NC(=O)NCCC1=CCCCC1 | 15.2% |
| CCN(CC)S(=O)(=O)c1ccc(OC)c(NC(=O)C2CC(=O)N(c3ccc(C)cc3)C2)c1 (centres unmarked) | -19.6% |
| CN(C)CC/C=C1/c2cc(F)ccc2CSc2ccc(F)cc21 | -43.2% |
| CCCCn1c(O)c(C(C)=NCCc2ccccc2)c(=O)[nH]c1=O | 0.0399% |
| O=C(CNS(=O)(=O)c1cccs1)N1CCN(c2ccccn2)CC1 | -24% |
| CCCN1CCC(NC(=S)Nc2ccc(S(N)(=O)=O)cc2)CC1 | 10.7% |
| COc1ccc(C(C2C(=O)CC(C)(C)CC2=O)C2C(=O)CC(C)(C)CC2=O)cc1CO | -11.9% |
| Cc1ccc(C)c(N2CCN(S(=O)(=O)c3ccc(-c4cc(C)no4)s3)CC2)c1 | 16.9% |
